In patent publication US20240301043A1 (Q32 BIO, published 2024):

B1: Exemplary Fusion Construct 95 (other)
heavy: QVQLVQSGAEVKKPGASVKVSCKASGYTFTNYYINWVRQAPGQGLEWMGVINPYSGGTSYNQKFKGRVTMTVDTSTSTAYMELSSLRSEDTAVYFCSSPYWGQGTLVTVSSASTKGPSVFPLAPCSRSTSESTAALGCLVKDYFPEPVTVSWNSGALTSGVHTFPAVLQSSGLYSLSSVVTVPSSSLGTKTYTCNVDHKPSNTKVDKRV[human IgG4 Fc with S228P L235E M428L N434S (EU numbers) not given here]
light: not shown
B2: Exemplary Fusion Construct 143 (other)
heavy: QVQLVQSGAEVKKPGASVKVSCKASGYTFTNYYINWVRQAPGQGLEWMGVINPYSGGTSYNQKFKGRVTMTVDTSTSTAYMELSSLRSEDTAVYFCSSPYWGQGTLVTVSSASTKGPSVFPLAPCSRSTSESTAALGCLVKDYFPEPVTVSWNSGALTSGVHTFPAVLQSSGLYSLSSVVTVPSSSLGTKTYTCNVDHKPSNTKVDKRV[human IgG4 Fc with S228P L235E M428L N434S (EU numbers) not given here]GGGGSGGGGSGGGGSEDCNELPPRRNTEILTGSWSDQTYPEGTQAIYKCRPGYRSLGNVIMVCRKGEWVALNPLRKCQKRPCGHPGDTPFGTFTLTGGNVFEYGVKAVYTCNEGYQLLGEINYRECDTDGWTNDIPICEVVKCLPVTAPENGKIVSSAMEPDREYHFGQAVRFVCNSGYKIEGDEEMHCSDDGFWSKEKPKCVEISCKSPDVINGSPISQKIIYKENERFQYKCNMGYEYSERGDAVCTESGWRPLPSCEEKSCDNPYIPNGDYSPLRIKHRTGDEITYQCRNGFYPATRGNTAKCTSTGWIPAPRCTLK
light: DVVMTQSPLSLPVTLGQPASISCKSSQSLLDSDGKTYLNWFQQRPGQSPRRLIYLVSKLDSGVPDRFSGSGSGTDFTLKISRVEAEDVGVYYCWQGTHFPRTFGGGTKVEIKRTVAAPSVFIFPPSDEQLKSGTASVVCLLNNFYPREAKVQWKVDNALQSGNSQESVTEQDSKDSTYSLSSTLTLSKADYEKHKVYACEVTHQGLSSPVTKSFNRGEC

Target: T1, human C3d (human, UniProt P01024 fragment)
T1 construct: domain: C3d; also called C3d antigen
Assay: ELISA, human C3d coated on plate

Chain of human C3d (P01024 1002-1303 limits assumed): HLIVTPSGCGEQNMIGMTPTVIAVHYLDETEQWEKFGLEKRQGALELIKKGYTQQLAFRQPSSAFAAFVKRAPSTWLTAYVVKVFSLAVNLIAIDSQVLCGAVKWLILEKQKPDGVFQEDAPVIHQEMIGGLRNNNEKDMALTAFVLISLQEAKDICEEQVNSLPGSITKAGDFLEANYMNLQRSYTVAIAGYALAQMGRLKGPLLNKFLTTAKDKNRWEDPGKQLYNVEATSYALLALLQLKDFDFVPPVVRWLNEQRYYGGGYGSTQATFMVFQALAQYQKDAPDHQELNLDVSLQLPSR

Row | Binder | EC50 [nM]
1 | B1 | 0.04
2 | B2 | 0.05
